# The other results are listed elsewhere or left out.
# Key:
# Assay in all cases: glycan array binding signal (z-score within array); higher = stronger binding
# Conditions in all cases: glycan notation: IUPAC condensed, linker removed
# [1] = molecular target: GalNAc(b1-3)Gal(a1-4)Gal(b1-4)GlcNAc
# Procedure, shortened: (§1)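 Glycan array data were curated from 3228 arrays in the Consortium for Functional Glycomics database and kept only where the protein sequence was available. Glycan names were converted to IUPAC-condensed notation, and columns mapping to the same glycan were averaged. The binding signal is a within-array Z-score, averaged across arrays of the same protein sequence at different concentrations or buffers and across linkers. Negative Z-scores can be read as non-binding.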
# [2] = molecular target: GalNAc(b1-3)Gal(a1-4)Gal(b1-4)GlcNAc(b1-3)Gal(b1-4)Glc
# Procedure, shortened: as §1
# [3] = molecular target: GalNAc(b1-3)Gal(a1-6)Gal(b1-4)Glc
# Procedure, shortened: as §1
# GalNAc(b1-3)GalNAc = molecular target: GalNAc(b1-3)GalNAc
# Procedure, shortened: as §1
# GalNAc(b1-4)GlcNAc = molecular target: GalNAc(b1-4)GlcNAc
# Procedure, shortened: as §1
# [4] = molecular target: GalNAc(b1-4)GlcNAc(b1-2)Man(a1-3)[GalNAc(b1-4)GlcNAc(b1-2)Man(a1-6)]Man(b1-4)GlcNAc(b1-4)GlcNAc
# Procedure, shortened: as §1
# Glc(a1-4)Glc = molecular target: Glc(a1-4)Glc
# Procedure, shortened: as §1
# Glc(a1-6)Glc(a1-6)Glc = molecular target: Glc(a1-6)Glc(a1-6)Glc
# Procedure, shortened: as §1
# Glc(b1-4)Glc = molecular target: Glc(b1-4)Glc
# Procedure, shortened: as §1
# Glc(b1-6)Glc = molecular target: Glc(b1-6)Glc
# Procedure, shortened: as §1
# GlcA(b1-3)Gal = molecular target: GlcA(b1-3)Gal
# Procedure, shortened: as §1
# GlcA(b1-3)GlcNAc = molecular target: GlcA(b1-3)GlcNAc
# Procedure, shortened: as §1
# GlcA(b1-6)Gal = molecular target: GlcA(b1-6)Gal
# Procedure, shortened: as §1
# [5] = molecular target: GlcNAc(a1-3)Gal(b1-4)GlcNAc
# Procedure, shortened: as §1
# [6] = molecular target: GlcNAc(a1-4)Gal(b1-3)GlcNAc
# Procedure, shortened: as §1
# [7] = molecular target: GlcNAc(a1-4)Gal(b1-4)GalNAc
# Procedure, shortened: as §1
# [8] = molecular target: GlcNAc(a1-4)Gal(b1-4)GlcNAc
# Procedure, shortened: as §1
# [9] = molecular target: GlcNAc(a1-4)Gal(b1-4)GlcNAc(b1-3)Gal(b1-4)Glc
# Procedure, shortened: as §1
# [10] = molecular target: GlcNAc(a1-4)Gal(b1-4)GlcNAc(b1-3)Gal(b1-4)GlcNAc
# Procedure, shortened: as §1
# [11] = molecular target: GlcNAc(a1-4)Gal(b1-4)GlcNAc(b1-3)Gal(b1-4)GlcNAc(b1-3)Gal(b1-4)GlcNAc
# Procedure, shortened: as §1
# [12] = molecular target: GlcNAc(a1-4)Gal(b1-4)GlcNAc(b1-3)Gal(b1-4)[Fuc(a1-3)]GlcNAc(b1-3)Gal(b1-4)[Fuc(a1-3)]GlcNAc
# Procedure, shortened: as §1
# [13] = molecular target: GlcNAc(a1-6)Gal(b1-4)GlcNAc
# Procedure, shortened: as §1
# [14] = molecular target: GlcNAc(b1-2)Gal(b1-3)GalNAc
# Procedure, shortened: as §1
# [15] = molecular target: GlcNAc(b1-2)Man(a1-3)[GlcNAc(b1-2)Man(a1-6)]Man(b1-4)GlcNAc(b1-4)GlcNAc
# Procedure, shortened: as §1
# [16] = molecular target: GlcNAc(b1-2)Man(a1-3)[GlcNAc(b1-2)Man(a1-6)]Man(b1-4)GlcNAc(b1-4)[Fuc(a1-6)]GlcNAc
# Procedure, shortened: as §1
# [17] = molecular target: GlcNAc(b1-2)[GlcNAc(b1-4)]Man(a1-3)[GlcNAc(b1-2)Man(a1-6)]Man(b1-4)GlcNAc(b1-4)GlcNAc
# Procedure, shortened: as §1
# GlcNAc(b1-3)Gal = molecular target: GlcNAc(b1-3)Gal
# Procedure, shortened: as §1
# [18] = molecular target: GlcNAc(b1-3)Gal(b1-3)GalNAc
# Procedure, shortened: as §1
# GlcNAc(b1-3)Gal(b1-4)Glc = molecular target: GlcNAc(b1-3)Gal(b1-4)Glc
# Procedure, shortened: as §1
# [19] = molecular target: GlcNAc(b1-3)Gal(b1-4)GlcNAc
# Procedure, shortened: as §1
# [20] = molecular target: GlcNAc(b1-3)Gal(b1-4)GlcNAc(b1-3)Gal(b1-4)GlcNAc
# Procedure, shortened: as §1
# GlcNAc(b1-3)GalNAc = molecular target: GlcNAc(b1-3)GalNAc
# Procedure, shortened: as §1
# GlcNAc(b1-3)Man = molecular target: GlcNAc(b1-3)Man
# Procedure, shortened: as §1
# [21] = molecular target: GlcNAc(b1-3)[GlcNAc(b1-4)][GlcNAc(b1-6)]GlcNAc
# Procedure, shortened: as §1
# [22] = molecular target: GlcNAc(b1-3)[GlcNAc(b1-6)]Gal(b1-4)GlcNAc
# Procedure, shortened: as §1
# [23] = molecular target: GlcNAc(b1-3)[GlcNAc(b1-6)]GalNAc
# Procedure, shortened: as §1
# [24] = molecular target: GlcNAc(b1-4)Gal(b1-4)GlcNAc
# Procedure, shortened: as §1
# GlcNAc(b1-4)GlcNAc = molecular target: GlcNAc(b1-4)GlcNAc
# Procedure, shortened: as §1
# [25] = molecular target: GlcNAc(b1-4)GlcNAc(b1-4)GlcNAc
# Procedure, shortened: as §1
# [26] = molecular target: GlcNAc(b1-4)GlcNAc(b1-4)GlcNAc(b1-4)GlcNAc(b1-4)GlcNAc
# Procedure, shortened: as §1
# [27] = molecular target: GlcNAc(b1-4)GlcNAc(b1-4)GlcNAc(b1-4)GlcNAc(b1-4)GlcNAc(b1-4)GlcNAc
# Procedure, shortened: as §1
# [28] = molecular target: GlcNAc(b1-4)[GlcNAc(b1-6)]GalNAc
# Procedure, shortened: as §1
# [29] = molecular target: GlcNAc(b1-6)Gal(b1-4)GlcNAc
# Procedure, shortened: as §1
# GlcNAc(b1-6)GalNAc = molecular target: GlcNAc(b1-6)GalNAc
# Procedure, shortened: as §1
# GlcNAc3Prop(b1-4)GlcNAc = molecular target: GlcNAc3Prop(b1-4)GlcNAc
# Procedure, shortened: as §1
binder,measurement,setting,value
Gal 1 (Canis lupus) (protein) MACGLVASNLSLKPGQCLRVQCEVVPEAKSFVLNLGKDGDNLCLHFNPRFEAHGDVNTIVCNSKDGGAWGEELRESAFPFQPGTVTEVCISFDQADLTIKLPDGYTFKFPNRLNLEAISYLAADGDMKIKCLAFD,glycan array binding signal (z-score),[1],-0.321
same,glycan array binding signal (z-score),[2],-0.311
same,glycan array binding signal (z-score),[3],-0.321
same,glycan array binding signal (z-score),GalNAc(b1-3)GalNAc,-0.341
same,glycan array binding signal (z-score),GalNAc(b1-4)GlcNAc,-0.281
same,glycan array binding signal (z-score),[4],-0.313
same,glycan array binding signal (z-score),Glc(a1-4)Glc,-0.317
same,glycan array binding signal (z-score),Glc(a1-6)Glc(a1-6)Glc,-0.327
same,glycan array binding signal (z-score),Glc(b1-4)Glc,-0.335
same,glycan array binding signal (z-score),Glc(b1-6)Glc,-0.343
same,glycan array binding signal (z-score),GlcA(b1-3)Gal,-0.333
same,glycan array binding signal (z-score),GlcA(b1-3)GlcNAc,-0.294
same,glycan array binding signal (z-score),GlcA(b1-6)Gal,-0.333
same,glycan array binding signal (z-score),[5],-0.327
same,glycan array binding signal (z-score),[6],-0.332
same,glycan array binding signal (z-score),[7],-0.305
same,glycan array binding signal (z-score),[8],-0.312
same,glycan array binding signal (z-score),[9],-0.318
same,glycan array binding signal (z-score),[10],-0.274
same,glycan array binding signal (z-score),[11],-0.234
same,glycan array binding signal (z-score),[12],-0.257
same,glycan array binding signal (z-score),[13],-0.308
same,glycan array binding signal (z-score),[14],-0.335
same,glycan array binding signal (z-score),[15],-0.34
same,glycan array binding signal (z-score),[16],-0.315
same,glycan array binding signal (z-score),[17],-0.317
same,glycan array binding signal (z-score),GlcNAc(b1-3)Gal,-0.299
same,glycan array binding signal (z-score),[18],-0.317
same,glycan array binding signal (z-score),GlcNAc(b1-3)Gal(b1-4)Glc,-0.293
same,glycan array binding signal (z-score),[19],-0.3
same,glycan array binding signal (z-score),[20],-0.152
same,glycan array binding signal (z-score),GlcNAc(b1-3)GalNAc,-0.318
same,glycan array binding signal (z-score),GlcNAc(b1-3)Man,-0.306
same,glycan array binding signal (z-score),[21],-0.315
same,glycan array binding signal (z-score),[22],-0.334
same,glycan array binding signal (z-score),[23],-0.326
same,glycan array binding signal (z-score),[24],-0.325
same,glycan array binding signal (z-score),GlcNAc(b1-4)GlcNAc,-0.321
same,glycan array binding signal (z-score),[25],-0.24
same,glycan array binding signal (z-score),[26],-0.334
same,glycan array binding signal (z-score),[27],-0.326
same,glycan array binding signal (z-score),[28],-0.328
same,glycan array binding signal (z-score),[29],-0.307
same,glycan array binding signal (z-score),GlcNAc(b1-6)GalNAc,-0.33
same,glycan array binding signal (z-score),GlcNAc3Prop(b1-4)GlcNAc,-0.334

# From the supplement of paper PMC8728848
